# According to PubChem BioAssay AID2147 (National Center for Advancing Translational Sciences (NCATS), 2009):
# Among all 230,000 compounds or so, about 3,600 (1.6%) were called active. The shares of active, inactive and inconclusive entries below differ from those in the screen. Calls come from the whole dose curve; as a rule, active = well fitted inhibition curve with a large enough effect (not every such curve was filed as active); inconclusive = small, poorly fitted or top-dose-only effect, or another doubt; inactive = no such curve, though single readings can be large or run the other way. Where the call is inconclusive, the potency comes from a doubtful curve fit.
# Target: Lysine-specific demethylase 4E (Homo sapiens) (UniProt B2RXH2)
# Sequence of UniProt B2RXH2 (B2RXH2 whole entry, looked up, the tested form may be a part): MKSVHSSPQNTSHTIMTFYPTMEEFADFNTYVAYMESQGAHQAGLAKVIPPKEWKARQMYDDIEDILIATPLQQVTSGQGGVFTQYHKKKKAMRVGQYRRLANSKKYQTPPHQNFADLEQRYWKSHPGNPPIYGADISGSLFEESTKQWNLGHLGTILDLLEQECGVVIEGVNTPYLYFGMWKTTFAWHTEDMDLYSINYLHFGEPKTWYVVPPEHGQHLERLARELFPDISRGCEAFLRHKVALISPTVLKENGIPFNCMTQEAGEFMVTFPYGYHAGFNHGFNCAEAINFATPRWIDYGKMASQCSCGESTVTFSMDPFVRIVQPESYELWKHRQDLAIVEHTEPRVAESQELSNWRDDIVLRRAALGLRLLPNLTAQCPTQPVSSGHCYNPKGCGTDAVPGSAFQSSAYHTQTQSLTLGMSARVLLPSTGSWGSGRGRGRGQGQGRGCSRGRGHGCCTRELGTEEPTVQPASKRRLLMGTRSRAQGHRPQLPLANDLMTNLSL
# Test: qHTS Assay for Inhibitors of Human Jumonji Domain Containing 2E (JMJD2E)
# Conditions: JMJD2E catalytic domain, FDH-coupled NADH fluorescence (FDH is formaldehyde dehydrogenase); series mostly up to 57.1 µM; activity change, negative = inhibition: at the top concentration
# Note: nearly all actives have a fitted effect of over 50% in size.
# Potency is the fitted concentration of half-maximal effect; tags give direction and shape of the fitted curve.
# 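Throughout, for activity change, negative = inhibition: 0% = wells with enzyme and -100% = buffer wells without enzyme.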
Structure (SMILES),"activity change, negative = inhibition",Potency
COc1ccc(C(=O)NCc2oc(-c3ccccc3)cc2C(=O)O)cc1,inactive: -0.342%,
Cc1cc(=O)oc2n[nH]c(-c3ccccc3)c12,,"inconclusive: 25.1 µM [inhibitor, partial curve]"
Nc1nc(-c2ccc3c(c2)NC(=O)CO3)cs1,inactive: -5.36%,
O=C(/C=C/c1ccc(S(=O)(=O)N2CCOCC2)cc1)N1CCN(c2ccc(F)cc2)CC1,inactive: 0.812%,
CCOC(=O)CN(C(=O)COc1nc(-c2ccccc2)cc(C)c1C#N)c1ccccc1C,,"inconclusive: 35.5 µM [inhibitor, partial curve]"
CN(C)Cc1nc2c(c(=O)[nH]1)C1(CCCCC1)Cc1ccccc1-2,inactive: -1.33%,
Cc1onc(-c2c(Cl)cccc2Cl)c1C(=O)N/N=C(\N)COc1ccc(Cl)cc1,,"inconclusive: 39.8 µM [inhibitor, single point]"
CCOC(=O)c1ccccc1N/C=C1\CCCC1=O,,"inconclusive: 28.2 µM [inhibitor, partial curve]"
CC12CCC(C(=O)N3CCC(Cc4ccccc4)CC3)(C(=O)C1=O)C2(C)C (centres undefined),inactive: -3.52%,
COc1ccc(/C=C\C(=O)NCc2ccc3[nH]c(C)cc3c2)cc1OC,,"inconclusive: 39.8 µM [inhibitor, single point]"
CC(OCC(O)CNCC1COc2ccccc2O1)c1ccc(Cl)cc1 (centres undefined),,"inconclusive: 39.8 µM [inhibitor, single point]"
CCOC(=O)c1cc2c(ccn2-c2ccc(F)cc2)n1CC(=O)NC(C)(C)C,,"inconclusive: 28.2 µM [inhibitor, partial curve]"
CCCCNC(=O)C1CCN(Cc2ccccn2)CC1,,"inconclusive: 22.4 µM [inhibitor, single point]"
COc1cccc(C(=O)Nc2cc(-c3cn4cccnc4n3)ccc2C)c1,,"inconclusive: 35.5 µM [inhibitor, partial curve]"
CCOCCCNC(=S)N(Cc1ccco1)Cc1cc2cc3c(cc2[nH]c1=O)OCCO3,,"inconclusive: 31.6 µM [inhibitor, partial curve]"
O=C(CSc1nc2nc(-c3cccs3)cc(C(F)(F)F)c2c(=O)[nH]1)Nc1ccc(F)c(F)c1,,"inconclusive: 28.2 µM [inhibitor, partial curve]"
COC(=O)CC(=O)CSc1nc2c(cc1C#N)CCC2,,"inconclusive: 31.6 µM [inhibitor, partial curve]"
COc1ccc(Nc2cc(C)c3ccc(O)cc3n2)cc1,,"inconclusive: 28.2 µM [inhibitor, single point]"
COc1ccc(/C=C2/SC(=O)N(CC(=O)Nc3cc(C)on3)C2=O)cc1OC,,"inconclusive: 4.47 µM [inhibitor, single point]"
